Measured values: publication PMC4336329 (PLoS ONE, 2015)
The whole screen tested about 310,000 compounds, of which about 14,000 (4.5%) showed an effect of 50% or more. Effects have a minus sign here. This is one part of the list.

What follows are molecules tested against human ether-à-go-go-related gene (hERG) potassium channel (human, UniProt Q12809) (assay: primary screen, population patch clamp on CHO cells stably expressing hERG).
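Also: peak tail current of the secondary pulse compared with the same well before compound.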

Chain of human ether-à-go-go-related gene (hERG) potassium channel (Q12809 whole entry, looked up): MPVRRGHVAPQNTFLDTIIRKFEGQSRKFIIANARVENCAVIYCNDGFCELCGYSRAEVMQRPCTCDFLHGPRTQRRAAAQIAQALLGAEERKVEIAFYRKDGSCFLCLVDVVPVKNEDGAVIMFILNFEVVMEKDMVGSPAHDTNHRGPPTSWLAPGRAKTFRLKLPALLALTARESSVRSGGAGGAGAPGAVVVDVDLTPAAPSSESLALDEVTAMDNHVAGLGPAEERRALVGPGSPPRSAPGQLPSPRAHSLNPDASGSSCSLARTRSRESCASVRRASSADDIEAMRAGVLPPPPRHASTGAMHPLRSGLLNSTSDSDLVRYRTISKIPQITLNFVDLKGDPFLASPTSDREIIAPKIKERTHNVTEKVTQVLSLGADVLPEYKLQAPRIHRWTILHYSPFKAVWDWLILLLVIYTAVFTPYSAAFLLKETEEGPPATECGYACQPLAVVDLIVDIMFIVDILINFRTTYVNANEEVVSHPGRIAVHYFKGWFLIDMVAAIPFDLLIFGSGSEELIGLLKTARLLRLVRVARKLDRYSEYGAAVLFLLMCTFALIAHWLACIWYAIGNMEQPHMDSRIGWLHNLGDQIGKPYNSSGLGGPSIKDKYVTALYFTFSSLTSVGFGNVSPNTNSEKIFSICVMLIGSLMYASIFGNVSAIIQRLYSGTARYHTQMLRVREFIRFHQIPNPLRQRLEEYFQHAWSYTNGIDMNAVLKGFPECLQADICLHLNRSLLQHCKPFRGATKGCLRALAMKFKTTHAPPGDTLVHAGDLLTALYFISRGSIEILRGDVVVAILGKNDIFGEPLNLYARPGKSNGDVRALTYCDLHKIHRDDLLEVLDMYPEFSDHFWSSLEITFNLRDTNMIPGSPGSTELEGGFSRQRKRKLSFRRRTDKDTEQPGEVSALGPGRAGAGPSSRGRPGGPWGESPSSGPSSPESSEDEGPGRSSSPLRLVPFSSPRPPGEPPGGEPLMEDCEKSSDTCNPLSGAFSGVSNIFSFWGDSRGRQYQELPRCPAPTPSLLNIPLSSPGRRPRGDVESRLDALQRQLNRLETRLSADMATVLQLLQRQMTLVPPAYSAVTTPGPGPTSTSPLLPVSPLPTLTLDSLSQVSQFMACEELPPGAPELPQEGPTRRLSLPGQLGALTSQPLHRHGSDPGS

SMILES | hERG current change (%, negative = inhibition) at 10uM [%]
CCOc1ccc(OCC)c(NC(=O)CSc2nnnn2CC)c1 | -12.8
COc1ccc(/C=N/NC(C)(C)C)c(OC)c1.Cl | 12.3
Cc1ccc2cc(CN(Cc3ccc4c(c3)OCO4)Cc3nnnn3Cc3ccco3)c(=O)[nH]c2c1 | -39.5
Cc1ccc(C2(C)CC(C)(C)N(C(=O)CSc3nnc(C)s3)c3ccccc32)cc1 (centres unmarked) | 4.85
COc1cc(C(=O)OC2C[C@H]3CC[C@@H](C2)N3)ccc1O (some centres unmarked) | -2.71
O=C(Nc1ccc(Br)cc1)C1CCN(c2cnccn2)CC1 | 2.63
O=C1NC(=O)c2cc(NC(=O)C3CCCO3)ccc21 (centres unmarked) | -15.8
O=C(O)c1ccc(Oc2c(C(F)(F)F)oc3cc(O)ccc3c2=O)cc1 | 17.1
Nc1ccccc1C#CCCCCO | 9.32
CCNc1nc2[nH]c(=O)c3c(c2s1)OC(N)=C(C#N)C3c1cccs1 (centres unmarked) | 1.8
CC(=O)N(c1cccc(C)c1)S(=O)(=O)c1ccc(Cl)cc1 | 9.88
Cc1ccccc1OCCn1cnc2cc([N+](=O)[O-])ccc2c1=O | -7.38
O=C(C[n+]1cccc(CNC(=O)c2ccc(OC(F)F)cc2)c1)Nc1cc(C(F)(F)F)ccc1Cl.[Cl-] | -18.5
CCOC(=O)C(NCc1ccc2c(c1)OCO2)(NC(=O)c1ccccc1)C(F)(F)F (centres unmarked) | -0.6
Cc1ccc2[nH]c(-c3ccccc3)c(CN3CCOCC3)c(=O)c2c1 | -13.9
COc1ccc(N2CCN(S(=O)(=O)c3ccc(-n4cnnn4)c(C)c3)CC2)cc1 | 9.42
CC(C)C(NS(=O)(=O)c1cccc2nsnc12)C(=O)NCCC1=CCCCC1 (centres unmarked) | -14.3
Fc1cccc(Cl)c1CN1CCN(c2nc3ccccc3s2)CC1 | 13.5
S=C(NCCCN1CCOCC1)NCCCN1CCOCC1 | 25.8
CNC(=S)N(CCc1c(C)[nH]c2ccc(C)cc12)Cc1ccc(OC)c(OC)c1 | -5.57
Nc1cc(Nc2ccccc2)c2nonc2c1[N+](=O)[O-] | 16.3
CC1(C)Cc2nc3nc(SCC(=O)Nc4ccccc4)nc(N)c3cc2CO1 | 10.6
Cc1cccc(-c2nc(CS(=O)CC(=O)N3CCCCC3)c(C)o2)c1 (centres unmarked) | 18.8

SMILES | hERG current change (%, negative = inhibition) at 10uM [%]
CSCC[C@H](NC(=O)OC(C)(C)C)c1nnc(SCc2cccc(F)c2)o1 | -30.3
O=C(O)c1cc(NS(=O)(=O)c2ccc3ccccc3c2)ccc1O | 12.2
CN1CCN(c2ccc(Cl)cc2NC(=O)C2COc3ccccc3O2)CC1 (centres unmarked) | -44.2
CN(CC(=O)NCCc1ccc(F)cc1)Cc1ccc(Br)cc1 | -11.1
O=C1CCN(CCc2ccccc2)CCN1CCSc1ccc(Br)cc1 | -80.1
Cc1ccccc1OCC(=O)Nc1sc2c(c1C#N)CCC2 | -4.25
CN(C)CCOC1c2ccccc2-c2ccccc21.O=C(O)C(=O)O | 3.18
CC(C)NC(=O)NC(=O)CN1c2cccc3cccc(c23)S1(=O)=O | 8
O=C(c1ccc2c(c1)OCO2)N1CCN(c2ccc(F)cc2)CC1 | -30.4
COc1ccc(CNCCC(c2ccccc2)c2ccc(OC(C)C)cc2)cc1OC (centres unmarked) | -69.7
O=C(CSCc1ccc(F)cc1)NCc1ccc2c(c1)OCO2 | -9.94
N/C(=N\OC(=O)Oc1ccccc1)c1ccc(Cl)cc1 | 0.651
Cc1cccc(N=Nc2c(O)[nH]c3ccc(Br)cc23)c1 | 13.5
CC(=O)Nc1cccc(OCC(=O)Nc2sccc2C(N)=O)c1 | 1.46
COC(=O)[C@@H]1C[C@@]2(O)[C@H](O)[C@H](O)[C@H](O)C[C@H]2N1CC(c1ccccc1)c1ccccc1 | 14.3
COc1ccc2c(c1)C(C)CC(C)(C)N2C(=O)Nc1ccccc1 (centres unmarked) | 8.54
CCN1C(=O)CCCc2ccccc21 | 17.6
CCn1nc(NC(=O)c2ccco2)c2cc3ccccc3nc21 | -0.887
Cc1cc(C)cc(NC(=O)CCCCCN2C(=O)[C@@H]3Cc4ccccc4CN3C2=O)c1 | -51.9
CC1CCN(CCCNC(=O)c2ccc(CS(=O)(=O)Cc3ccc(Cl)cc3)o2)CC1 | -44
O=C1COc2ccc(S(=O)(=O)N3CCCCC3)cc2N1 | 20
CCc1cc(C(=O)COc2ccccc2F)c(O)cc1O | -1.35
COCCCn1c(SCC(=O)O)nc2cc(OC)c(OC)cc2c1=N | 9.07

SMILES | hERG current change (%, negative = inhibition) at 10uM [%]
C=C(C)c1cccc(C(C)(C)NC(=O)Nc2cc(C)ccn2)c1 | 6.07
O=c1c2ccccc2ncn1-c1ccc(Cl)cc1 | 10.6
NC(N)=N/N=C/c1ccc(OCc2ccccc2)c(OCc2ccccc2)c1 | -38.9
CCCCCNC(=O)CCCCn1c(=O)[nH]c2cc(OCC)c(OCC)cc2c1=O | -0.175
O=C(COC(=O)c1ccccc1-c1nc2ccccc2s1)NC1CCS(=O)(=O)C1 (centres unmarked) | -1.07
CC(O)C(=O)NCCOCCOCCNC(=O)C(C)O (centres unmarked) | 6.33
CCOC(=O)N1CCN(C(=O)CNC(=O)c2ccc(Cl)cc2)CC1 | 3.58
COC(=O)c1ccc(C2C(C(=O)Nc3ccccc3C)=C(C)Nc3ncnn32)cc1 (centres unmarked) | -1.32
O=C(Cn1c(=O)oc2ccccc21)N1CCCCC1 | 0.141
O=C1NCCN1CCN1C(=O)c2ccccc2NC1c1ccccc1 (centres unmarked) | -10.8
Cc1ccc(OCC(=O)NC(=S)Nc2cccc(NC(=O)c3ccccc3)c2)cc1 | 0.949
O=C(COc1ccc(Cl)cc1Br)NC1CC1 | -9.5
CN(C)/C=C1/C(=O)Nc2ccccc21 | -8.07
CCOC(=O)c1c(-c2ccccc2)oc2ccc(OCC(=O)NN)cc12 | 3.85
COc1cccc(-c2nnc(SCN3C(=O)c4ccccc4C3=O)n2C)c1 | -18.5
COc1cc(NS(=O)(=O)c2ccc(NC(=O)COc3ccc(C)cc3)cc2)nc(OC)n1 | 10.1
c1nnc2c3c4c(sc3ncn12)CCC4 | -2.87
COc1ccccc1NS(=O)(=O)c1cccc(NC(=O)C2CC2)c1 | -15.5
COc1ccccc1NC(=O)Nc1ccc(F)c(F)c1 | 18.4
COc1ccc(CC(=O)Nc2cc(=O)n(C)c(=O)n2C)cc1 | 11.2
CCOC(=O)/C(=N\Nc1ccc(C(C)=O)cc1)c1csc(Nc2ccccc2)n1 | 5.53
Cc1ccc(-c2nc(CS(=O)(=O)CC(=O)NCCCN3CCOCC3)c(C)o2)cc1 | 11.5
O=C(NCc1ccc(Cl)cc1)C1C2C=CC3(CN(Cc4cccnc4)C(=O)C13)O2 (centres unmarked) | -7.1

SMILES | hERG current change (%, negative = inhibition) at 10uM [%]
CCCc1cc(C(=O)Nc2ccc(CC)cc2)no1 | 0.086
COC(=O)C(O)(CC(=O)Nc1ccc(OC(F)(F)F)cc1)C(F)(F)F (centres unmarked) | 13.1
CC(=O)c1cccc(OCC(=O)Nc2cccc(C(=O)Nc3c(C)n(C)n(-c4ccccc4)c3=O)c2)c1 | -7.78
COC(=O)/C=C/c1ccsc1NC(C)=O | 13.6
Cc1ccsc1C(=O)NNC(=O)c1cccc(S(=O)(=O)N2CCCC2)c1 | 4.72
O=[N+]([O-])c1cc(S(=O)(=O)N2CCCC2)ccc1N/N=C/c1ccccn1 | 39.8
O=C(NC1CCCCCC1)c1ccc(S(=O)(=O)NCc2ccco2)cc1 | 2.7
FC(F)Oc1ccc(/C=N/c2c(-c3ccc(OC(F)F)cc3)nc3n2CCS3)cc1 | 30
O=S(=O)(c1ccc(SCCO)nc1)N1CCCC1 | 7.44
COC(=O)[C@@]1(Cc2ccccc2)[C@@H]2C(=CC(=O)[C@H]2CC(=O)C(=O)N(C)C)CN1C(=O)c1ccccc1 | -0.867
CN(C)S(=O)(=O)c1cccc(NC(=O)COC(=O)CCc2nc3ccccc3s2)c1 | -16.7
COc1ccc(Nc2nc(-c3cccs3)nc3ccccc23)cc1 | 6.04
CCCc1cc2c(=O)c(-c3ccc4c(c3)OCCO4)coc2cc1OC(=O)c1ccco1 | -0.664
CC1CC(=O)N(CC(=O)Nc2ccc3c(c2)OCCO3)c2ccccc2S1 (centres unmarked) | -17.1
CCNC(=S)Nc1sc2c(c1C#N)CCC(C)C2 (centres unmarked) | 17.8
COc1ccc(OC)c(/C=N/NC(=O)c2cc3c(OC)c(OC)ccc3[nH]2)c1 | 1.91
O=C(NC1CCCC1)c1cc(-c2ccccc2O)on1 | 12.2
COc1ccccc1-c1nnc2n1N=C(C)CS2 | 0.183
CCN1C(=O)c2ccccc2S(=O)(=O)c2ccc(C(=O)NCc3cccnc3)cc21 | -8.75
COCCNC(=O)C(NC(=O)C1CCCCC1)C12CC3CC(CC(C3)C1)C2 (centres unmarked) | -8.46
